From PubChem BioAssay AID330 (DTP/NCI, 2004)
Toxic doses and inconclusive results are not listed. Certain results were filed several times, with different values. This is not the full list of results. There may be further records. Values given together differ for a reason that is not stated; they may come from other doses, times, organisms or constructs than stated.

Tested on: P388 leukemia ip, CD2F1 mice, survival T/C
Test: NCI In Vivo Anticancer Drug Screen. Data for tumor model P388 Leukemia (intraperitoneal) in CD2F1 (CDF1) mice
Conditions: endpoint: median survival time, higher = longer survival

c1cc(C2=NCCN2)ccc1Nc1ccc(-c2cc3ccc(C4=NCCN4)cc3[nH]2)cc1
T/C (dose: 15.0 mg/kg/injection, schedule: Q01DX005 (ip), vehicle: Klucel (hydroxypropylcellulose) (HPC)): 90 % of control and 186 % of control

CC1OC(OC2CC(O)(C(=O)CO)Cc3c(O)c4c(c(O)c32)C(=O)c2ccccc2C4=O)CC(N)C1O (stereo not given)
T/C (dose: 2.0 mg/kg/injection, schedule: Q04DX003 (ip), vehicle: water): 117 % of control and 155 % of control

O=C(O)c1c2c(nc3ccccc13)Cc1ccccc1-2
T/C (dose: 100.0 mg/kg/injection, schedule: Q01DX009 (ip), vehicle: saline with Tween-80): 110 % of control and 150 % of control

OCC(O)CCBr (stereo not given)
T/C (dose: 400.0 mg/kg/injection, schedule: Q04DX003 (ip), vehicle: saline): 110 % of control and 150 % of control

COc1cc2c(cc1O)c(O)cc1c3cc(OC)c(OC)cc3c[n+](C)c21
T/C (dose: 100.0 mg/kg/injection, schedule: Q01DX005 (ip), vehicle: Klucel (hydroxypropylcellulose) (HPC)): 107 % of control and 163 % of control
